In PubChem BioAssay AID504332 (National Center for Advancing Translational Sciences (NCATS), 2011):
Among all 350,000 compounds or so, about 31,000 (8.9%) were called active. The shares of active, inactive and inconclusive entries below differ from those in the screen. The call rests on the fitted dose curve; in most records, active means well fitted inhibition curve with a large enough effect; inconclusive means small, poorly fitted or top-dose-only effect; inactive means no such curve, though single readings can be large or run the other way. Where the call is inconclusive, the potency comes from a doubtful curve fit.

molecular target: Histone-lysine N-methyltransferase EHMT2 (Homo sapiens) (UniProt Q96KQ7); experiment: qHTS Assay for Inhibitors of Histone Lysine Methyltransferase G9a; conditions: G9a H3K9 monomethylation, AlphaScreen, 2 h; activity, negative = inhibition: at 59 µM (top of the series) unless noted; further: nearly all actives have a fitted effect of over 75% in size
Sequence of UniProt Q96KQ7 (Q96KQ7 whole entry, looked up): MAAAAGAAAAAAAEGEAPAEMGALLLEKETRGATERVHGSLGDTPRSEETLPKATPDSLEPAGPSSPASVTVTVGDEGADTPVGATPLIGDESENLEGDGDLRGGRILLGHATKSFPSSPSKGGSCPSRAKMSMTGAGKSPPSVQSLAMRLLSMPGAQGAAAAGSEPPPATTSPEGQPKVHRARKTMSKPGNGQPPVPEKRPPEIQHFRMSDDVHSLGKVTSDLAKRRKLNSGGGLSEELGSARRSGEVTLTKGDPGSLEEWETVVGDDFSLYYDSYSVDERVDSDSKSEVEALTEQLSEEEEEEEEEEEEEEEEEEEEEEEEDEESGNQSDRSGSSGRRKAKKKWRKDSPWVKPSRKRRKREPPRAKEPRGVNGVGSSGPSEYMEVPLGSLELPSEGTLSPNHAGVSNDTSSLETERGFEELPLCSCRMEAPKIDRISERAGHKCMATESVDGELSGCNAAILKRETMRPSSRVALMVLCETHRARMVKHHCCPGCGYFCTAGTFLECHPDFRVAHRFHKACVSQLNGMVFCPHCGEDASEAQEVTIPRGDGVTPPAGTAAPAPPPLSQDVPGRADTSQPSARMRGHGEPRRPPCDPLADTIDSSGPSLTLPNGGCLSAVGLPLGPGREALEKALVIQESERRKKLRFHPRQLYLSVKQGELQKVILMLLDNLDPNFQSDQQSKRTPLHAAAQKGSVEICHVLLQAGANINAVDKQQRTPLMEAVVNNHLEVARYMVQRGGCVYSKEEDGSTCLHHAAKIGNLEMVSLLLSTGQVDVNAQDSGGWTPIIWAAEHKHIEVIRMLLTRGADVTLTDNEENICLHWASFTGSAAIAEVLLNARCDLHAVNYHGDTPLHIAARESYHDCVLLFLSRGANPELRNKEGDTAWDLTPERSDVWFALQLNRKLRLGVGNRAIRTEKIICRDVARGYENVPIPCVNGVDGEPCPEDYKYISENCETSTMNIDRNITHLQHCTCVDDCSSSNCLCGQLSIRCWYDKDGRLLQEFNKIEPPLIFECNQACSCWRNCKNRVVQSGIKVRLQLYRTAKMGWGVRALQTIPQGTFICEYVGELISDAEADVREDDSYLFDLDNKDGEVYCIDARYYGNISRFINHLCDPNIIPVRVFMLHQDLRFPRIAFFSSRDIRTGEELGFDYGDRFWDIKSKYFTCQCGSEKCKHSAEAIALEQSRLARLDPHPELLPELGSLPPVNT
Outline: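 Signal arises when biotinylated H3K9 peptide, once monomethylated, bridges streptavidin donor and antibody-captured acceptor beads. Enzyme at 20 nM was preincubated 15 min with test compounds; peptide 500 nM and SAM 20 uM then reacted for 2 h.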
On the % scale 0 is the no-effect control and ±100 the full control effect; potency means the concentration at half of the fitted maximal effect; tags describe the fitted curve by direction and shape.

| Compound | Potency | activity, negative = inhibition |
| --- | --- | --- |
| O=C(CSc1nc2ccccc2s1)NNC(=S)Nc1ccc(Br)cc1 | inconclusive: 79.4 µM [inhibitor, single point] | – |
| CSc1nncc(/C(C)=N\Nc2ccccc2)n1 | inconclusive: 6.31 µM [inhibitor, single point] | – |
| CCOc1cc(C2C3=C(CCCC3=O)N(C)C3=C2C(=O)CCC3)cc(Cl)c1O | inconclusive: 25.1 µM [inhibitor, single point] | – |
| CCCc1cc(=O)[nH]c(SCC(=O)N2CCN(c3ccc(F)cc3)CC2)n1 | inconclusive: 1.78 µM [inhibitor, partial curve, poor fit] | – |
| CCCn1c(C)cc(/C=C(\C#N)C(=O)OCC(=O)NC(=O)NC(C)(C)C)c1C | inconclusive: 0.708 µM [inhibitor, full curve, poor fit] | – |
| CN1CCN(Cc2nc3ccccc3c(=O)n2Cc2nc(-c3ccc([N+](=O)[O-])cc3)cs2)CC1 | active: 22.4 µM | – |
| CCc1nc2ccc(C(=O)N3CCN(c4ccc([N+](=O)[O-])cc4)CC3)cc2nc1CC | – | inactive: 1.77% [at 0.0925 µM] |
| S=C(c1ccc(-c2cccc(Cl)c2)o1)N1CCCCC1 | active: 11.2 µM | – |
| COc1ccccc1NC(=O)c1cc2c(=O)n(C)c3ccccc3c2n1C | inconclusive: 89.1 µM [inhibitor, single point] | – |
| COC(=O)CCc1sc(Nc2ccc(Br)cc2)nc1-c1ccc(OC)cc1 | active: 35.5 µM | – |
| C=CCn1c(SCc2ccccc2)nc2c1c(=O)[nH]c(=O)n2C | active: 31.6 µM | – |
| CCOC(=O)C(=NCCOC)NNc1cc(Cl)ccc1Cl | active: 39.8 µM | – |
| COc1ccc(CNC(=O)c2sc3nc4n(c(=O)c3c2C)CCCC4)cc1 | active: 14.1 µM | – |
| N#CC1=C(N)Oc2c(oc(CO)cc2=O)C1c1ccsc1 (stereo not given) | active: 31.6 µM | – |
| CC1(C)CC(NC(=O)c2ccccc2)CC(C)(C)N1 | inactive | – |
| O=C(Nc1cc(-c2ccccc2)sc1C(=O)O)c1cccc(F)c1 | inactive | – |
| CCCCCC(=O)Nc1cccc(C2=NOC3(C2)C[C@@H](C(N)=O)N(C(=O)c2ccc(Cl)cc2)C3)c1 (stereo not given in full) | inconclusive: 3.16 µM [inhibitor, single point] | – |
| N#CC(C#N)=C1C=CC=CN1/C(=C\c1ccccc1)C(=O)c1cccs1 | active: 1.12 µM | – |
| Cc1cccc(-c2cc3nc4c(c(N5CCCC(O)C5)n3n2)CCC4)c1 (stereo not given) | inconclusive: 89.1 µM [inhibitor, partial curve, poor fit] | – |
| Oc1ccccc1N1CCN(C(c2ccccc2)c2ccccc2)CC1 | inconclusive: 79.4 µM [inhibitor, single point] | – |
| COc1cccc(/C=C2/NC(=O)N(CC(=O)Nc3ccc(C)cc3)C2=O)c1OCc1cccc(C(=O)O)c1 | inconclusive: 79.4 µM [inhibitor, single point] | – |
| COc1ccc(OCC(O)CNC(=O)/C=C/c2cccc([N+](=O)[O-])c2)cc1 (stereo not given) | inconclusive: 79.4 µM [inhibitor, partial curve, poor fit] | – |
| O=C(CSc1nnc2c(n1)[nH]c1ccccc12)NCc1ccco1 | active: 10 µM | – |
| Cc1cc(C)nc(NS(=O)(=O)c2ccc(NC(=O)c3cc(-c4ccccc4)nc4ccccc34)cc2)n1 | inconclusive: 10 µM [inhibitor, partial curve] | – |

| Compound | Potency | activity, negative = inhibition |
| --- | --- | --- |
| CC(C)NC(=O)NC(=O)COc1ccc(Br)cc1Br | inconclusive: 2.82 µM [inhibitor, full curve, poor fit] | – |
| Cc1cc(C)n(-c2nc(N(c3ccccc3)c3ccccc3)nc(-n3nc(C)cc3C)n2)n1 | inactive | – |
| COc1ccc(NC(=S)NC(NC(=O)/C=C/c2ccccc2)C(Cl)(Cl)Cl)cc1 (stereo not given) | inactive | – |
| CCN(CC)CCCNc1nc2ccccc2[nH]1 | inconclusive: 44.7 µM [inhibitor, partial curve, poor fit] | – |
| CC(=O)N/C(=C\c1cccs1)C(=O)O | inconclusive: 50.1 µM [inhibitor, partial curve, poor fit] | – |
| Cc1ccc(-c2nc(CS(=O)CC(=O)NCCCc3ccccc3)c(C)o2)cc1 (stereo not given) | inconclusive: 50.1 µM [inhibitor, single point] | – |
| O=C(NCCCN1CCCC1)Nc1ccccc1[N+](=O)[O-] | inconclusive: 89.1 µM [inhibitor, single point] | – |
| COC(=O)c1ccc([C@@H]2Nc3c(OC)ccc(C)c3[C@@H]3C=CC[C@@H]32)cc1 | active: 3.16 µM | – |
| CC(C)C(NS(=O)(=O)c1ccc2c(c1)C(C)(C)C(=O)N2C)C(=O)NCc1ccc(F)cc1 (stereo not given) | inactive | – |
| O=C(NC(=S)Nc1ccc(Cl)c(C(=O)O)c1)c1ccco1 | inconclusive: 79.4 µM [inhibitor, single point] | – |
| COCCNC(=O)c1cc2ncc(Br)cn2n1 | inactive | – |
| CCN(CC)c1ccc(NC(=O)CCNC(=O)c2ccco2)cc1 | active: 7.94 µM | – |
| O=S(=O)(c1ccccc1)N1CCN(C2CCN(Cc3ccccc3)CC2)CC1 | inactive | – |
| CC1CCc2c(nc3ncnn3c2N2CC(C)OC(C)C2)C1 (stereo not given) | – | inactive: 1.09% [at 2.33 µM] |
| N#CC1=C(N)C(C#N)(C#N)C(c2cccnc2)C2CCCC=C12 (stereo not given) | active: 44.7 µM | – |
| O=C(O)c1ccc(/C=C/C(=O)c2ccc3c(c2)OCCCO3)cc1 | inconclusive: 89.1 µM [inhibitor, single point] | – |
| Cc1ncoc1C(=O)N1CCCC(C(=O)c2ccc(C(F)(F)F)cc2)C1 (stereo not given) | active: 25.1 µM | – |
| Cc1ccc(C)c(Cn2nnc3c(=O)[nH]c(C4CCN(S(=O)(=O)c5ccc(S(=O)(=O)NC6CC6)cc5)CC4)nc32)c1 | inconclusive: 79.4 µM [inhibitor, single point] | – |
| O=C(O)[C@@H]1CCCN1C(=O)CCc1c[nH]c2ccccc12 | inactive | – |
| Cc1ccc(-c2nc3ccccc3[nH]2)s1 | active: 7.94 µM | – |
| CCCCSc1nnc(CNC(=O)C23CC4CC(CC(C4)C2)C3)n1Cc1ccccc1 | inconclusive: 79.4 µM [inhibitor, single point] | – |
| CN1CCN(c2ccc(Cl)cc2NC(=O)/C=C/c2ccc(F)cc2)CC1 | inconclusive: 39.8 µM [inhibitor, full curve] | – |
| Cc1cc(NC(=O)CSCc2ccccc2C)no1 | inconclusive: 17.8 µM [inhibitor, partial curve, poor fit] | – |
| Cc1cccc(C(=O)N=c2sccn2C)c1[N+](=O)[O-] | inconclusive: 7.08 µM [inhibitor, full curve] | – |

| Compound | Potency | activity, negative = inhibition |
| --- | --- | --- |
| Cc1cccc(N2CCCn3c2nc2c3c(=O)[nH]c(=O)n2C)c1 | inconclusive: 14.1 µM [inhibitor, partial curve, poor fit] | – |
| CSc1ccccc1C(=O)Nc1ncc(C)s1 | inconclusive: 79.4 µM [inhibitor, single point] | – |
| COc1ccc(C2/C(=C(/O)c3ccc(C)cc3)C(=O)C(=O)N2c2ccccn2)cc1OC (stereo not given) | – | inconclusive: -65.7% [inhibitor] |
| Cc1ccc(NC(=O)C(=O)NNC(=O)c2cccs2)cc1 | active: 3.98 µM | – |
| COC(=O)c1c(NC(=O)CSc2nc(-c3ccco3)cc(C(F)(F)F)n2)sc2c1CCCC2 | – | inconclusive: -83.2% [inhibitor] |
| COc1ccc(C2c3c(ccc4ccccc34)Oc3ncn4nc(-c5ccco5)nc4c32)cc1OC (stereo not given) | inconclusive: 89.1 µM [inhibitor, single point] | – |
| COc1ccc(-c2csc3nc(C)nc(N4CCN(c5ccc(C(C)=O)cc5)CC4)c23)cc1OC | inconclusive: 39.8 µM [inhibitor, partial curve, poor fit] | – |
| O=C(NCCN1CCOCC1)c1ccc(CS(=O)(=O)c2c(Cl)cccc2Cl)o1 | inconclusive: 89.1 µM [inhibitor, single point] | – |
| CC(C)CCCC(C)C1CC(=O)C2=C3CCC4CC(O)CCC4(C)C3CCC21C (stereo not given) | – | inactive: 2.02% [at 12.7 µM] |
| CCn1c2ccccc2c2cc(CN3CCN(Cc4ccc(Br)cc4)CC3)ccc21 | active: 0.891 µM | – |
| O=C(CN1CCOCC1)NCc1ccccc1 | inconclusive: 7.94 µM [inhibitor, partial curve] | – |
| CSc1ccc(C(=O)C2CCCN(Cc3cccc4nccnc34)C2)cc1 (stereo not given) | – | inconclusive: -52.9% [inhibitor] |
| C=CCn1c(SCC(=O)Nc2sccc2C(N)=O)nc2ccc(Cl)cc2c1=O | inconclusive: 56.2 µM [inhibitor, partial curve] | – |
| CN(C)CCCN(C(=O)CCOc1ccccc1)c1nc2ccc(F)cc2s1 | active: 28.2 µM | – |
| COC(=O)c1ccc(-c2nc(O)c(C)s2)cc1 | active: 7.08 µM | – |
| COc1ccccc1C1C2=C(N=C3SCC(=O)N31)c1ccccc1CC2 (stereo not given) | inconclusive: 15.8 µM [inhibitor, partial curve, poor fit] | – |
| Cc1ccc(O)c(N=Cc2sc3ccccc3c2Cl)c1 | inconclusive: 39.8 µM [inhibitor, single point] | – |
| COc1cc2c(cc1OC)C1=NC(=O)CN1C(SCc1ccccc1)=N2 | inconclusive: 2.24 µM [inhibitor, partial curve, poor fit] | – |
| Cc1cccc(N2C(=O)C(Cl)=C(N3CCOCC3)C2=O)c1 | inconclusive: 79.4 µM [inhibitor, single point] | – |
| O=[N+]([O-])c1cc(/C=N/n2cnnc2)ccc1N1CCCC1 | inactive | – |
| CC1=C(C(=O)c2ccccc2)C(c2cccc([N+](=O)[O-])c2)NC(=S)N1 (stereo not given) | inconclusive: 70.8 µM [inhibitor, partial curve, poor fit] | – |
| O=C(CSc1nc2c(c(=O)n1-c1ccc(Cl)cc1)SCC2)N1CCOCC1 | inconclusive: 50.1 µM [inhibitor, partial curve, poor fit] | – |
